Laboratory results published in the supplement of paper PMC11417369.
± gives the standard deviation of the averaged measurements. This is one part of the list.

These sequences were tested on PfAP2-G AP2 domain (GST-tagged) (assay: gcPBM binding intensity (ln(normalized median fluorescence intensity)); higher = stronger DNA binding).
How it was run: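 Plasmodium falciparum DNA-binding domains carrying a GST tag were expressed in E. coli and applied for 1 h, at about 25 μg on average, to an Agilent 4 × 180k array. The array held primer-extended double-stranded 36-bp intergenic genomic probes together with negative controls, and binding took place in 1× PBS with 1% milk, 0.2 mg/ml BSA, 0.5% salmon testes DNA and 0.03% Triton X-100. An Alexa488 anti-GST antibody detected bound protein, and the array was scanned at 488 nm. Binding intensity is taken as the highest Masliner-normalised natural-log median intensity across replicate spots of either probe orientation.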

Row | Sequence | gcPBM binding intensity (ln)
1 | CATAAATACAGATATACACACATATATATATATATA [CACACA_site4528] | 10.1 ± 0.42
2 | ATTATCCATGCATTTACACACACACTAATAAAAATT [CACACA_site9358] | 10.3 ± 0.2
3 | ACTTCATAAACATTTTGTACGTATGTATCTTTTTAT [XGTACX_site7012] | 11.2 ± 0.65
4 | TTAATATGGAAATGTTGTACATTTCTTGAAGCATTC [XGTACX_site525] | 11.1 ± 0.79
5 | TTATTGAAAAACATAATATCTAAGAGGGTAATATAT [GTGCAC_negctrl_site599] | 10 ± 0.13
6 | TAATTTCTTATGTATTGTACAAATAATATATTATTT [XGTACX_site3066] | 10.6 ± 0.26
7 | ATTCAAAATAATCACAGTACACATGAGATTATCTTT [XGTACX_site2197] | 11 ± 0.8
8 | GAAATATATAAATTGACACACACATATATACATATA [CACACA_site8323] | 10 ± 0.15
9 | TGTATTATTAATATTTGTACGTAATAATAAAAACAT [XGTACX_site3716] | 11.5 ± 1
10 | TGGAAACAAAAACACACACACAAAAAAAAAAAAAAA [CACACA_site3209] | 9.83 ± 0.42
11 | TCCTTAGAAATATTGATCATAAACTGGAAAGGTATA [XGTACX_negctrl_site354] | 10 ± 0.24
12 | TCCTAATATTTGTCAAATTTCAAAATAAATAAAATG [XGTACX_negctrl_site540] | 9.97 ± 0.36
13 | TAATTAAAATCATATACACACCCATATATATATATA [CACACA_site8524] | 9.97 ± 0.26
14 | TTAAAAATATTATGTACACACATTTTAGATATTTGT [CACACA_site1846] | 11.6 ± 0.77
15 | TAAATATATATATATTGTACAAAACAAATGTGAATT [XGTACX_site696] | 10.7 ± 0.28
16 | ATATTAAGTTTTATTACACACTCTCAATTTTTATTT [CACACA_site4206] | 9.91 ± 0.11
17 | TAAATGTTTCTCAAAAGTACACATGTGATATTTCTT [XGTACX_site2065] | 11.2 ± 0.82
18 | TATATATATATGTACACACACACATATAAATAAATA [CACACA_site443] | 11.5 ± 1.1
19 | TAAAAGGGGATATATGAACACACAAAAAAAAAATAT [CACACA_site8940] | 10.2 ± 0.19
20 | TTAAAAAAAAAAAAAAGTACATAAGTATATATAATA [XGTACX_site4295] | 11.7 ± 1
21 | CATATTTTTTCTTAAACACACACATATATATATATA [CACACA_site8920] | 10.4 ± 0.47
22 | CATATTATATTTTCATGTACACATAACATATTTATA [XGTACX_site4787] | 11.4 ± 1

Row | Sequence | gcPBM binding intensity (ln)
23 | GTTATAAACAAAATAAATATATGAATATATAATAAT [XGTACX_negctrl_site96] | 9.6 ± 0.13
24 | TACAAATATAGATGCACACACATATAGGTATATGTG [CACACA_site7439] | 10.5 ± 0.16
25 | TATATATAATTATAAGAACACACATATATATATATA [CACACA_site8786] | 10.2 ± 0.45
26 | ATATATTTCTGTCAAGCACACATAATATTAATATAT [CACACA_site7993] | 10.1 ± 0.11
27 | AATGATACTTAGGGGCATGTCTCTGGGGGCATAACC [CACACA_negctrl_site591] | 10.8 ± 0.61
28 | AAGTTTTCTTAAAGCTGTACTTTTTAAAAATAAAAT [XGTACX_site7716] | 11.4 ± 0.91
29 | ATATAGTAAATGTTCACACATACAAATATATATATA [CACACA_site5518] | 9.96 ± 0.15
30 | TTTTCTTGATTTTGTAGTACATTTTTACGATATTTT [XGTACX_site63] | 11.4 ± 0.68
31 | ATGTAAATTATTATTCTATTGTTATATACACAATAT [XGTACX_negctrl_site332] | 9.95 ± 0.11
32 | AAAATTATATTTTATAGAAATTTAAATAAATATATA [GTGCAC_negctrl_site199] | 9.51 ± 0.16
33 | TTTTTAAAAATAACAGAAAAGAATTACAGATTTTTT [XGTACX_negctrl_site472] | 9.72 ± 0.13
34 | CACATACATATATACACACACAAAATAATAAAATAA [CACACA_site2308] | 10.2 ± 0.17
35 | AGAGAGAAAGGTATAACATGCGATAAATTTTAGAAG [TGCATGCA_site37] | 9.745 ± 0.049
36 | TTTTTTACATCCATAAAACTTTTTCTCTTTTAAAAT [CACACA_negctrl_site1745] | 10.1 ± 0.2
37 | AAATCACTTTTTAAGTGTACTTGGTCTTTCTCATTT [XGTACX_site7221] | 11.3 ± 0.92
38 | ATATAGTTCGTTTATACACACATGATAAGATATTTA [CACACA_site1947] | 10.06 ± 0.021
39 | TAATTATAAATTATAGTGCATAAAATTGTAGCATAA | 9.89 ± 0.085
40 | AAAATATGATATGAAAAATTTGTTATATATACATAA [CACACA_negctrl_site1529] | 9.6 ± 0.18
41 | GACATTTGTGAGCTTGAGCCGTCAAACCACTAAATA [CACACA_negctrl_site552] | 9.99 ± 0.028
42 | AAAAAATTGAAGGAGTGTACATTTATACTTTATTTT [XGTACX_site8623] | 11.1 ± 0.15
43 | TGTAGAATTTCCTGAACATGCAAATAATTTTCCTTA [TGCATGCA_site881] | 9.795 ± 0.078
44 | AACATAATAAAAATGGATATAATTCAAAGTTTGTAA [TGCATGCA_negctrl_site529] | 9.73 ± 0.13

Row | Sequence | gcPBM binding intensity (ln)
45 | TGTTATTCGACATATACACACAAATAACAATTTAAA [CACACA_site5076] | 10.2 ± 0.33
46 | AGGTCTGTTTTATATTGTACATAAAAAGTGCACATG [XGTACX_site4529] | 11.2 ± 0.74
47 | TGTATTAATATGGTAATACACACTAATATACTTTTG [CACACA_site1610] | 10.2 ± 0.21
48 | TTCTATAAGTATAAATGTACAAAAAAAACATCATTC [XGTACX_site5450] | 10.8 ± 0.38
49 | ATTTTTTTTTAATGCAAAAGGTGATGATCGGTCATA [CACACA_negctrl_site959] | 10.2 ± 0.35
50 | CATATTCCAAGAATGTGTACATAATTTTTTTTTTTT [XGTACX_site4310] | 11.4 ± 0.8
51 | CTCATAATTTCTGAACGTACGTATTTCTCATTTTTA [XGTACX_site7296] | 11.3 ± 0.76
52 | TGTTAATTTATATTATGTACTTATAATTATCGTTTG [XGTACX_site1032] | 11.3 ± 0.95
53 | TATAGATGTATGTACATACACACATATATAAATAAA [CACACA_site1789] | 11.3 ± 0.76
54 | ATAATTCTAAATAAATGTACACACAAAAATAAATGT [XGTACX_site3547] | 11.4 ± 0.69
55 | TAACGCATGAATATAATATATATATATATAAAAATA [GTGCAC_negctrl_site218] | 9.62 ± 0.12
56 | ATTGTATGCACGTCTGCACACTTTTTTTTTTTTTTT [CACACA_site2082] | 10.4 ± 0.14
57 | GTTAATTGAAGATTCACACATAAATATATATATAAT [CACACA_site5482] | 9.79 ± 0.12
58 | TAGATAAATGGGTATACACACATATACATAAATATA [CACACA_site375] | 10.02 ± 0.085
59 | GTAAGATTTCTTGTTGCATGCGGTAAAAAGTAAAAT [TGCATGCA_site469] | 10.6 ± 0.41
60 | AACTTTATACTTTTTTGTACTTAACCCTTACATTTT [XGTACX_site5798] | 11.1 ± 0.38
61 | TTTATATATTTATTCACACATATAATATTCCGTCGT [CACACA_site6120] | 9.84 ± 0.11
62 | AACATACATAAACACACACACACACCCACACCCACA [CACACA_site8058] | 10.4 ± 0.45
63 | TTTATGAAACAGTGCACACATAAAAATATATACATA [CACACA_site2992] | 10.5 ± 0.38
64 | TACACCCACCAACACACACACACACCCAAAAAAAAA [CACACA_site498] | 10.5 ± 0.45
65 | AAATACCTGATATATACACACTATGTTTTTCTTTTT [CACACA_site6680] | 9.83 ± 0.34
66 | TATTAAATTATATAGACACACATTATATATATATAT [CACACA_site4345] | 10.1 ± 0.35

Row | Sequence | gcPBM binding intensity (ln)
67 | CAATTAAATATATGAACACACATGTGAACTTTCTAT [CACACA_site3977] | 10.18 ± 0.071
68 | AATATAGATACATATACACACACACCCATACATATA [CACACA_site9137] | 10.1 ± 0.13
69 | AAAAAGAAATATTTATGTACATAATAATAATATTTT [XGTACX_site4693] | 11.2 ± 0.59
70 | AAGAAAAACATTACGTGTACCAAAAGGCCTGTCAAC [XGTACX_site267] | 11.2 ± 0.51
71 | GTAACAAATAAAATAACACACATGTCGAAATGTATG [CACACA_site2971] | 9.945 ± 0.007
72 | AAAATGGGTTAGCACATACACACCAATATATTATAT [CACACA_site3082] | 10.04 ± 0.021
73 | TTCCATCAAAAAATGGGTACACATTATAGAAATATT [XGTACX_site8482] | 11.6 ± 0.92
74 | GCATTTTAATAATTATGTACATATATTATTCCTGGT [XGTACX_site3664] | 11.3 ± 0.61
75 | ATATTTAAACGATGGTGTACATATATTACAAGTTGT [XGTACX_site1743] | 11.4 ± 0.73
76 | ATATAGATCTACACTGCACACATTTTTAACACTGCT [CACACA_site1882] | 10.06 ± 0.092
77 | AAAACATACAGATATACACACATATATATATATATA [CACACA_site5091] | 9.85 ± 0.085
78 | AAATTATTATCGTTAATATGTATATATGTGCCAAGT [TGCATGCA_negctrl_site557] | 10.1 ± 0.18
79 | TATACATATATATATACACACATATATATATATACA [CACACA_site402] | 9.8 ± 0.042
80 | ACGCATGTAATTTATACACACATTCTTTTATATTTT [CACACA_site3708] | 9.87 ± 0.22
81 | AATCTAATGTAATGCATACACACAACTATCCATCAA [CACACA_site535] | 10.01 ± 0.035
82 | CATATATGATATATTAGTACATATATATATATATAT [XGTACX_site1574] | 11 ± 0.62
83 | CGATATAAAGATATTAGTACATATGCATGCTTGTCT [XGTACX_site8629] | 10.7 ± 0.38
84 | AATATACGAAATTGTGCACACATATATTTATGTATG [CACACA_site1510] | 10.5 ± 0.3
85 | TAAAATGAAGGAATATGTACATAAATAAACATATAT [XGTACX_site6266] | 11.2 ± 0.63
86 | TTGAAATTAAATGACATACACACTATATTATATATT [CACACA_site3135] | 9.72 ± 0.11
87 | AAAAATAAAGTAAAAGCATGCTAGTATATGGAAAAT [TGCATGCA_site486] | 9.96
88 | TATAATAATATTTATTGTACAATTAGGTTAATTCAT [XGTACX_site1986] | 10.9 ± 0.38
